Read counts are not given, so values of variants with three or more changes are uncertain.
B1: LINE1-mini (parent)
chain: GGCAGAGCUCAACACAGCGUGGCAAAGUGGCUGUGGCUAGACUGCC

Variants of: B1
Assay: self-cleavage, relative activity (ratio to wild type); higher = more cleavage; in vitro, sequencing; the parent is a self-cleaving ribozyme

Row | Variant | self-cleavage
1 | GUCAGAGCUCAACACACCUUGGCAAAGUGGCUGUGGCUGGAAUGCC [G2U G17C G19U A39G C42A] | 0.03
2 | GGCAGCGCUCACCACAGCGUGCCAAAGUGGCUGUGGGUAGACUGCA [A6C A12C G22C C37G C46A] | 0
3 | GGCAGACCUCAACGCAGCGUGGCACAGUGACUGUGGCUAGACUGCC [G7C A14G A25C G30A] | 0.07
4 | CGCAGAGCUCAACACAGCGUGGCAACUUGGCGGUGGCUAGACUGCC [G1C A26C G27U U32G] | 0
5 | GGCAGAGUUCAACAUCGCGUGGCAAAGUGGCAGUGGCUAGACUGCC [C8U C15U A16C U32A] | 0.01
6 | GGCAGAGCUCAACACAGAGUGGCACAGUGGCGGUGGCUAGACUGCC [C18A A25C U32G] | 0.05
7 | GGCAGAGCUCAACACAGUGUGCCAAAGUGGCUGUGGCCAGACUGAC [C18U G22C U38C C45A] | 0.03
8 | GGCAGAGCUCAAAACAGCGUGGCAAAGCGGAUGUGGCUAUACUGCC [C13A U28C C31A G40U] | 0
9 | GGAAGAGCUCCACACAGCAUGGCAAAGUGGCUGUGGCUAGACUGCC [C3A A11C G19A] | 0.01
10 | GGCAGACCUCAACACAGCGUGGCAAAGUGACUGUGGCUAGCCUGCC [G7C G30A A41C] | 0.13
11 | GGCAGAGCUAAACACAGCGUGGAAAAGUGGCUGUGGCGAGACUGCC [C10A C23A U38G] | 0.07
12 | GGCAGAGCCCAACACAGAGUGGCAAAGUGGCAGUCGCUAGACUGCC [U9C C18A U32A G35C] | 0.01
13 | GGCAGAGGAUAACACAGCGUGGCAAAGUGGCUGUGGCUAGACCGCC [C8G U9A C10U U43C] | 0.04
14 | GGCAGAGCUCAACACAGCGUGGCAAAGUGACUGGGACUAGACUACC [G30A U34G G36A G44A] | 0.02
15 | GGCAGAGCUCAACACAACGUGGCAAAGUGGAUGAGGAUAGACUGCC [G17A C31A U34A C37A] | 0.01
16 | GGCAGGGCUCAACACACCGUGGCAAAGUGGCCGUGGCUAGACUGCG [A6G G17C U32C C46G] | 0.03
17 | GGCUGAGAUCAACACAGCGUCGCAAAGUGGCUGUGGCUAGACUGCC [A4U C8A G21C] | 0.02
18 | GGCUGAGCGCAACACAGUGUGGCAAAGUGGCUGUGGCUAGACUGCC [A4U U9G C18U] | 0.11
19 | GGCAGUGCUCAAGACCGCGUGGCAAAGUGGCUGUGGCUAGACUGCC [A6U C13G A16C] | 0.05

Row | Variant | self-cleavage
20 | GGCAGAGCUUAUCACAGCGAGGCAAAGUGGCUGUGGCUAGUCUCCC [C10U A12U U20A A41U G44C] | 0.02
21 | GGGAGAUCUCAACAUAGGGUGGCAAAGUGGCUGUGGCUAGUCUGCC [C3G G7U C15U C18G A41U] | 0.07
22 | GGCAGAGCUCUACACAGCGUGGCAAAGUAGCUGUGGCUAAACUGCU [A11U G29A G40A C46U] | 0.03
23 | GGCAUAGCUGAACACAUCGUGGCAAAGUGGCUGUGGCAAGACUGCC [G5U C10G G17U U38A] | 0
24 | GGCAGCGCUCAACACAGCGUGGGAAAGUGGCUGUUGCUAGACUGCC [A6C C23G G35U] | 0.07
25 | GCCAGAUCUCAACACAGCCUGGCAAAGUGGCAGUGGCUAGACUGCC [G2C G7U G19C U32A] | 0.06
26 | GGCUGUGCUAAACACUGCGUGGCAAAGUGGCUGUGACUUGACUUCC [A4U A6U C10A A16U G36A A39U G44U] | 0.01
27 | GGCAGUGCUAAACACCACGCGGCAAAGUGGCUGUGGCUAGACUGCC [A6U C10A A16C G17A U20C] | 0.01
28 | UGCGGAGCUCAACACAGCGUGGCAAAGUGGCUGUGGCUAGGCUGCC [G1U A4G A41G] | 0.16
29 | GGCAGAGCUCAACACAGCGUGGGAAAGUGGGUGUGGCUAGACUGCG [C23G C31G C46G] | 0.13
30 | GGCAGAUCGCAACACGGAGUGACAAAGUCGCUGUGGCUCGACUUCC [G7U U9G A16G C18A G22A G29C A39C G44U] | 0.05
31 | CGCAGUGCUCAACACAGUGUGGCAAAGUGUCUGUGGCUAGUCUACC [G1C A6U C18U G30U A41U G44A] | 0.03
32 | GGCAGGGCUUAACACAGCGUGGCAAAGGGGCUGUGGUUAGACUGCC [A6G C10U U28G C37U] | 0.02
33 | GUCAGAGCUAAACACAGCGUGGCAAAGUGCCUGUGGCUAGUUGGCC [G2U C10A G30C A41U C42U U43G] | 0.01
34 | CGCAGAGCUUAACACAGCCUGGCAACGUGGCUGUGGCAAGACUGCC [G1C C10U G19C A26C U38A] | 0.01
35 | GGCAGAACACGACACUGCGGGGCAAAGUGGGUGUGGCUAGACUGCA [G7A U9A A11G A16U U20G C31G C46A] | 0.05
36 | GGCAUAGCGCAACACAGCGUGGCAUAGUCGCUGUGGCUAGACUGCC [G5U U9G A25U G29C] | 0.02
37 | GGCAGAGCUCAACUCAGCGUGGCAAAGUUGCGGUGGCUAGACUGCG [A14U G29U U32G C46G] | 0.01
38 | CGCAGAGCUCUACACAGCCUGGCAAAGUGAGUGUGGCUAGACUGCC [G1C A11U G19C G30A C31G] | 0.02

Row | Variant | self-cleavage
39 | CGCAGAGGUCAACACAGCGUGGCAAAGUGACUGUCGCUAUACUGCC [G1C C8G G30A G35C G40U] | 0
40 | GGCAGAGCUGAACACAGCGUGGCAAAUUGUCUGUGGCUAAAAUGCC [C10G G27U G30U G40A C42A] | 0
41 | GGCAGAGCUCAACACAGCGUGGUAAAGUGGCUGUGGCUAGAAAGCC [C23U C42A U43A] | 0.46
42 | GGCAGAGCUGAACACAGCGGGGCAAAGUGGCUGUGGCUAGACUGUC [C10G U20G C45U] | 0.06
43 | GGCAGAGCUCAACACAACGUGGCAAAGGGGCUGUGGAUAGACUGCC [G17A U28G C37A] | 0.12
44 | CGCAGAGCUCAACACAGCGUGGCAAAGUGGCAGUGGUUAGACUGCC [G1C U32A C37U] | 0.01
45 | GGCAGAGCCCAACACAGCGUGGCAAAGUAGCUGUGGCUAGACUUCC [U9C G29A G44U] | 0.02
46 | GGCAGAGCUCAACACAGAGUGGCACAUUGGCUGUGGCUAGACUGCC [C18A A25C G27U] | 0.14
47 | GGCACCGCUCAACACAACGUGGCAUAGUGGCUGUGGCUAGACUGCC [G5C A6C G17A A25U] | 0.11
48 | GGCAGAGAUCGACGCAGCGUCACAAAAUGGCUGGGGCUGGACUGCC [C8A A11G A14G G21C G22A G27A U34G A39G] | 0.04
49 | GGCAGAGCUCAACACAGGGUGGCAAAGCGACUGUGGCUAGACUGCC [C18G U28C G30A] | 1.06
50 | GGCAGAACUCAACACAGUGUGGCAAAAUGGCUGUGGCUAGACUGCC [G7A C18U G27A] | 0.12
51 | GGCAGAGCUCAACACAGCGUGGCAAAGUUGGUGUGGCUAAAAUGCC [G29U C31G G40A C42A] | 0.01
52 | GACAGAGCUCAACACAGUGUGGCAAAGUGGCUGUGACUAGACUGCC [G2A C18U G36A] | 0.68
53 | AGCAGAGCUCAACACAGCGCGGCAAUGUGGCUGUGGCUAGACUGAC [G1A U20C A26U C45A] | 1.41
54 | GGCACAGCUAAACACAGCCUGGCAAAGUGGCUGUGGCUCGACUGCG [G5C C10A G19C A39C C46G] | 0.02
55 | GGCAGAGCUCAACACAGCGUGGCAAAGUUGCUGUAGCUAGAAUGCC [G29U G35A C42A] | 0
56 | GGCAGAGCUCAACAACGCGUGCCAUAGUGGCCGUGGCUAGACUGCC [C15A A16C G22C A25U U32C] | 0.02

From the RNAGym collection of RNA variant scans (doi:10.7554/elife.90254)
